Data: ChEMBL document CHEMBL1201862, “PubChem BioAssay data set” (2004)
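Five concentrations, 48 hours, 96-well plates. GI50 is the concentration that inhibits growth by half.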 The source made the active and inactive calls. No stated cut-off is given here; in the data, active = GI50 up to about 1.1 µM and inactive = higher.

These molecules were tested on NCI-H322M (assay: NCI anticancer screen, dose series, 48 h).

Compound | GI50
Nc1nc(O)c2c(ncn2CCO)n1 | inactive: > 100 µM
O=C(CCN1CCCCC1)c1csc2ccccc12 | inactive: > 100 µM
N[C@H]1CCN(c2c(F)cc3c(=O)c(C(=O)O)cn4c3c2Oc2c-4ccc3c2ccc2ccccc23)C1 | active: 0.269 µM
CCCN(CCC)C(=O)c1c(N2CCN(C)CC2)c2cccnc2n2c(C)cnc12 | inactive: > 100 µM
O=C(O)c1cc(Cl)cc2c1NC1(N2)C(=O)Nc2ccccc21 (stereo not drawn) | inactive: > 100 µM
C(=N\N=C1NCCN1)/c1ccc2ccccc2c1 | inactive: 14.6 µM
C=C(Cl)C(Cl)(CBr)CCC(Cl)C(C)(C)Cl (stereo not drawn) | inactive: 2.5 µM
C[C@H]1C2Cc3cc(N)ccc3[C@@]1(C)CCN2CCc1ccccc1 | inactive: 70.8 µM
O=C(CC(C(=O)c1cccs1)c1ccc2c(c1)OCO2)c1ccccc1 (stereo not drawn) | inactive: > 100 µM
O=C1C(/N=N/c2ccc(-c3nc4ccccc4[nH]3)cc2)NC(=S)N1c1ccccc1 (stereo not drawn) | inactive: 87.7 µM
CCCCCCCCCC(=O)CC(=O)c1ccc(O)cc1O | inactive: 35.3 µM
COC(=O)N1C=CC2=C(C)C3Nc4ccccc4C3C(C)=C2C1 (stereo not drawn) | inactive: 1.12 µM
C/C=C/[C@@H]1[C@H]2C(=O)[C@]3(Cl)[C@@H](/C=C/C)[C@@H]3C(=O)[C@@]12Cl | inactive: > 100 µM
Cc1ccc(C(=O)/C=C2\Nc3c(c(=O)oc4ccccc34)N=C2NC23CC4CC(CC(C4)C2)C3)cc1 | inactive: > 100 µM
CC(C)(C)OC(=O)NCCNC(=O)OCc1ccccc1 | inactive: > 100 µM
Cc1c(C(=O)O)n2c(C)nnc2c2ccccc12 | inactive: > 100 µM
COC1N(C2CC(O)C(CO)O2)C(=O)NC(=O)C1(F)Br (stereo not drawn) | inactive: 17.1 µM
Cc1cc(Cl)ccc1NC(=O)C(=O)C(C(=O)c1ccccc1)C1OC(=O)c2ccccc21 (stereo not drawn) | inactive: > 100 µM
O=C1C2CC=CCC2C(=O)N1n1c(-c2ccccc2)n[nH]c1=O (stereo not drawn) | inactive: > 100 µM
CC[C@@]1(O)C[C@H](OC2CC(N(C)C)C(OC3CC(O)C(OC4CCC(=O)C(C)O4)C(C)O3)C(C)O2)c2c(cc3c(c2O)C(=O)c2c(O)ccc(O)c2C3=O)[C@H]1C(=O)OC (stereo partly drawn) | active: 0.01 µM
O=c1[nH]c(C2CCCCC2)nc2c(Cl)cccc12 | inactive: > 100 µM
COc1ccccc1/C=C/C1=NN(c2cccc(S(=O)(=O)O)c2)C2(C1)C(Cl)C(=O)N2c1nc2ccccc2s1 (stereo not drawn) | inactive: > 100 µM
COc1ccc(Cn2c(=O)c(OS(=O)(=O)C(F)(F)F)c(C)c3cc4ccccc4cc32)cc1 | inactive: > 100 µM
Cc1ccc(Oc2ccc(C)cc2[N+](=O)[O-])cc1 | inactive: > 100 µM

Compound | GI50
Cc1n[nH]c(=O)n1C1CC1 | inactive: > 100 µM
Cc1cc(O)nc(NN2C(Cl)C(=O)C2c2cccc([N+](=O)[O-])c2)n1 (stereo not drawn) | inactive: 22.6 µM
O=P(Nc1ccccc1)(Oc1ccccc1)N1CCN(c2ccccc2)CC1 (stereo not drawn) | inactive: 33.6 µM
O=C1N=C(c2ccccc2)OC1C(=O)c1ccccc1 (stereo not drawn) | inactive: > 100 µM
C(/Cc1ccc2c(c1)OCO2)=N\N=C1NCCCN1 | inactive: > 100 µM
COc1cc(OC)c2c(O)c(S(=O)(=O)c3ccc(C)cc3)c(=O)oc2c1 | inactive: > 100 µM
O=C1O[C@H](C(Cl)(Cl)Cl)N2CCCC12 (stereo partly drawn) | inactive: > 100 µM
CC(C)(NC(=O)OCc1ccccc1)C(=O)OC(=O)C(C)(C)NC(=O)OCc1ccccc1 | inactive: > 100 µM
CC(C)c1cccc(C(C)C)c1NC(=O)CCC(=O)NN | inactive: > 100 µM
CCOC(=O)C(=[N+]=[N-])C(=O)C[N+]12CCN(CC1)CC2 | inactive: > 100 µM
CC(C)=C1CCC(CN(C)C)C1=O (stereo not drawn) | inactive: > 100 µM
CC(C)(C)N1CSC(=S)N(Cc2ccco2)C1 | inactive: 13.2 µM
CCOC(=O)c1ccc(/N=C2/C(=S)N(c3ccc(C(=O)OCC)cc3)C(=N)N2/N=C/c2ccccc2)cc1 | inactive: 42.1 µM
O=C(C[C@@H]1NCCC[C@H]1O)Cn1cnc2cc(Br)c(Cl)cc2c1=O | active: 0.0208 µM
CCCCCNC1=CC(=O)c2ccccc2C1=O | inactive: 41.5 µM
O=c1[nH][nH]c(=O)n1Cc1ccccc1 | inactive: > 100 µM
COc1cc2c(cc1OCCCCN1C(=O)c3cccc4cccc(c34)C1=O)N=C[C@@H]1CCCN1C2=O | inactive: 16.2 µM
O=C1CN(c2ccc(Cl)cc2)C(=O)CN1CCN1CC(=O)N(c2ccc(Cl)cc2)CC1=O | inactive: > 100 µM
CCC12C=CCN3CCC4(C(=C(C(=O)OC)C1)Nc1ccccc14)[C@H]32 (stereo partly drawn) | inactive: 40.3 µM
CC(=O)NCC1OC2COC(c3ccccc3)OC2C(NC(=O)c2ccccc2)C1OC(=O)c1ccccc1 (stereo not drawn) | inactive: 64.1 µM
CCOc1snc(C(Cl)(Cl)Cl)c1Cl | inactive: 31.7 µM
CC1CNC(NS(=O)(=O)c2cc(C(=O)Nc3ccc(Cl)cc3)c(Cl)cc2S)=NN1 (stereo not drawn) | inactive: 33.2 µM
CCc1ccc(Nc2ccc([N+](=O)[O-])cc2[N+](=O)[O-])cc1 | inactive: 33 µM
O=C(CN1CCOCC1)c1ccc2[nH]c(=O)oc2c1 | inactive: > 100 µM

Compound | GI50
C/N=C(\N=c1/ss/c(=N\C)n1C)N(C)C.[O-][Cl+3]([O-])([O-])O | inactive: > 100 µM
Cc1c(C(=O)/C=C/c2cccc3ccccc23)[n+]([O-])c2ccccc2[n+]1[O-] | inactive: 16.2 µM
CCOC(C)OC1CC(n2cc(C)c(=O)[nH]c2=O)OC1CO (stereo not drawn) | inactive: > 100 µM
COC(=O)CN1C(=O)C2(C(=O)OC)OC1(c1ccc([N+](=O)[O-])cc1)C1C(=O)N(c3ccccc3)C(=O)C12 (stereo not drawn) | inactive: > 100 µM
COC(=O)[C@@H]1CCCCC[C@H]2C(CO)=C(C)C(=O)C12 (stereo partly drawn) | inactive: > 100 µM
CCN(CC)/N=C\c1c2ccccc2cc2ccccc12 | inactive: > 100 µM
C=CCC1(C)CCCCC1(O)C[S+]([O-])c1ccccc1 (stereo not drawn) | inactive: > 100 µM
CCC(=O)c1cn(C)c(=O)c2ccccc12 | inactive: > 100 µM
CCOC(=O)N/N=C(\Cc1ccccc1)OCC | inactive: > 100 µM
CC1=CC(=O)N(n2c(Cc3ccccc3)n[nH]c2=O)C1=O | inactive: > 100 µM
C[N+](C)(C)C1=NNC2=Nc3ccccc3SC2=C1 | inactive: 15.1 µM
NC(=O)NCCCC(NC(=O)OCCCCn1ccc(=O)[nH]c1=O)C(=O)O (stereo not drawn) | inactive: > 100 µM
O=c1[nH]c2ccc(CC(=S)N3CCN(c4ccccc4)CC3)cc2o1 | inactive: > 100 µM
Cn1c(=O)c(C(c2ccc([N+](=O)[O-])cc2)c2c(O)c3ccccc3n(C)c2=O)cc2ccccc21 (stereo not drawn) | inactive: 99.8 µM
C=CCN1/C(=C2\SC(=S)N(c3ccc(C)cc3)C2=O)Sc2c1nc[nH]c2=O | inactive: > 100 µM
CS(=N)(=O)CCC(N)P(=O)(O)O (stereo not drawn) | inactive: > 100 µM
CCOc1cc2c(cc1O)C(N)C[C@@H]1[C@@H]2CC[C@]2(C)[C@@H](O)CC[C@@H]12 (stereo partly drawn) | inactive: 65 µM
C=C(Cl)C(=C)CCC(Cl)C(C)(C)Cl (stereo not drawn) | inactive: > 100 µM
CN(C)CCNC(=O)c1ccc2nc3c(nc2c1)C(=O)c1ccccc1-3 | inactive: 40.2 µM
CN(C)[C@@H]1C(O)=C(C(=O)NCN2CCN(C(=N)NC(=N)N)CC2)C(=O)[C@@]2(O)C(O)=C3C(=O)c4c(O)cccc4[C@@](C)(O)[C@H]3C[C@@H]12 | active: 0.743 µM
CCN(CC)CCC1(C(=O)OC)SCCc2ccc(C)cc21 (stereo not drawn) | inactive: > 100 µM
CCOC(=O)C1=C(C)N(Cc2ccc(Cl)cc2Cl)C2(O)C=CC(=O)C3C(=O)N(c4ccccc4)C(=O)C132 (stereo not drawn) | inactive: 3.74 µM
CC(=O)C=C1Nc2ccccc2N1 | inactive: > 100 µM
O=C(N/N=C/c1ccc([N+](=O)[O-])cc1)c1cccc2nc3ccccc3nc12 | inactive: 4.84 µM

Compound | GI50
CC1(C)[C@@H]2CC[C@]1(C)[C@H](OC(=O)CSC#N)C2 | inactive: > 100 µM
OC(C/C(=N\N=C(/CC(O)(C(F)(F)F)C(F)(F)F)c1ccccc1)c1ccccc1)(C(F)(F)F)C(F)(F)F | inactive: > 10 µM
CC(C)=C1C(=O)C[C@]2(C)C/C=C(\C)CC/C=C(\C)CC[C@@H]12 | inactive: 15.2 µM
ClCCCC1COc2ccccc2O1 (stereo not drawn) | inactive: 62.8 µM
Cc1ccccc1-c1nc2c(N)nc(N)nc2nc1N | inactive: > 100 µM
COc1ccc(/N=C(/C[S+]([O-])c2ccc(C)cc2)C(F)(F)F)cc1 (stereo not drawn) | inactive: > 100 µM
COc1cc2cc(C(=O)N3CC(CCl)c4c3cc(NC(=O)C(C)(C)c3ccccc3[N+](=O)[O-])c3ccccc43)[nH]c2c(OC)c1OC (stereo not drawn) | inactive: 6.41 µM
O=C(CN1CCNCCN(CC(=O)N2CCCCC2)CCNCC1)N1CCCCC1 | inactive: > 100 µM
COc1cc(Oc2nc3ccccc3nc2C(=O)O)cc(OC)c1OC | inactive: > 100 µM
FC(F)(F)c1cccc(/C=N/C23CC4CC(CC(C4)C2)C3)c1 | inactive: > 100 µM
O=C1C(=C2SC(c3ccccc3)(c3ccccc3)c3ccccc32)C(=O)c2ccccc21 | inactive: > 100 µM
CC1Cc2c(N)nc(NN)nc2NC1=O (stereo not drawn) | inactive: > 100 µM
CCc1cccc(C)c1NC(=O)CC1Sc2ccccc2NC1=O (stereo not drawn) | inactive: 37.8 µM
Clc1nc(NCCc2ccccc2)c2ncn(-c3ccccc3)c2n1 | inactive: 33.9 µM
O=[N+]([O-])c1cnc(N(CCO)CCO)s1 | inactive: > 100 µM
CC(=O)OC1CC2C(C)(C)C(=O)C=C[C@]2(C)C2CCC3(C)C(c4ccoc4)[C@@H](O)[C@H]4O[C@]43[C@]12C (stereo partly drawn) | inactive: 26.9 µM
CCC1(O)CC(OC2CC(N(C)C)C(OC3CC(O)C(OC4OC(C)C(=O)C=C4N)C(C)O3)C(C)O2)c2c(O)c3c(c(O)c2C1C(=O)OC)C(=O)c1cccc(O)c1C3=O (stereo not drawn) | active: 0.01 µM
Cc1ccc([N+](=O)[O-])c2c(NCCC[N+](C)(C)[O-])ccnc12 | inactive: 73.8 µM
ClCC[N+]12CC[N+](CCCl)(CC1)C2 | inactive: > 100 µM
Cc1ccc2c(O)cc(-c3ccsc3)nc2n1 | inactive: 4.69 µM
C=C(C)COc1cc(/N=C(/S)OC(C)C)ccc1Cl | inactive: 15.9 µM
